Assay: Monomeric content of purified conjugates by size exclusion chromatography
Type: physicochemical
Details: for Monomeric content: SEC after Protein A affinity purification, ExpiCHO-S expression
Procedure: The expressed conjugates were purified by Protein A affinity chromatography on an ÄktaSTART system using mAbSelect SuRe columns (GE Healthcare, #11003493). A 20 mM sodium phosphate, 0.15 M sodium chloride (pH 7.3) buffer was used as binding and wash buffer, 0.1 M glycine (pH 2.5) as elution buffer and 1M Tris-HCl (pH 8.5) as neutralization buffer.
In total, 25 μg of the respective conjugate in 100 μl were injected onto a Superdex Increase 200 10/30 GL gel filtration column (GE Healthcare, #28989336) coupled to an Agilent 1200 series HPLC system. SEC runs were performed at a 0.5 ml/min flow rate with PBS as a running buffer. Proteins were detected by an online 280 nm absorption measurement. Data analysis and peak integrations were performed using GraphPad Prism 8.0.

B1: SP031: bispecific conjugate, anti-CD40 antibody A9 HC linked to mouse scFv (SEQ ID NO:57) with LC SEQ ID NO:58 (antibody)
heavy: EVQLLESGGGLVQPGGSLRLSCAASGFTFSSYAMSWVRQAPGKGLEWVSGISGYSGSTYYADSVKGRFTISRDNSKNTLYLQMNSLRAEDTAVYYCARYYSYYGYYYFDYWGQGTLVTVSSASTKGPSVFPLAPCSRSTSESTAALGCLVKDYFPEPVTVSWNSGALTSGVHTFPAVLQSSGLYSLSSVVTVPSSNFGTQTYTCNVDHKPSNTKVDKTVERKCCVECPPCPAPPVAGPSVFLFPPKPKDTLMISRTPEVTCVVVDVSHEDPEVQFNWYVDGVEVHNAKTKPREEQFNSTFRVVSVLTVVHQDWLNGKEYKCKVSNKGLPAPIEKTISKTKGQPREPQVYTLPPSREEMTKNQVSLTCLVKGFYPSDIAVEWESNGQPENNYKTTPPMLDSDGSFFLYSKLTVDKSRWQQGNVFSCSVMHEALHNHYTQKSLSLSPGKGGGGSGGGGSEVRLLQSGAALVRPGASVKLSCTASGFNIKDFNIHWVKQRPEQGLEWIGRIDPENGDAEYVPKFQVRATMTTDTSSNTVYLHLSSLTSGDTAVYYCTTGSYDLDVEYWGQGTTLTVSSGGGGSGGGGSGGGGSGGGGSELQMTQSPSSLSASLGDTVTITCHASQNINVWLSWYQQRPGNIPKLLIYKASTLHTGVPSRFRGSGSGTGFTLTISSLQPEDIATYYCQQGQSYPLTFGAGTKLELK
light: DIQMTQSPSSLSASVGDRVTITCRASQSISSYLNWYQQKPGKAPKLLIYAASSLQSGVPSRFSGSGSGTDFTLTISSLQPEDFATYYCQQGYPYPFTFGQGTKLEIKRTVAAPSVFIFPPSDEQLKSGTASVVCLLNNFYPREAKVQWKVDNALQSGNSQESVTEQDSKDSTYSLSSTLTLSKADYEKHKVYACEVTHQGLSSPVTKSFNRGEC
modifications: A9 heavy chain without entry
  Monomeric content: 85.3%
SEC after affinity purification, share of the total sample
  smaller, non-native population of lower molecular species: 14.7%

B2: SP007: bispecific conjugate, anti-CD40 Ab HC linked to humanized scFv (SEQ ID NO:59) with LC SEQ ID NO:58 (antibody)
heavy: EVQLLESGGGLVQPGGSLRLSCAASGFTFSSYAMSWVRQAPGKGLEWVSGISGYSGSTYYADSVKGRFTISRDNSKNTLYLQMNSLRAEDTAVYYCARYYSYYGYYYFDYWGQGTLVTVSSASTKGPSVFPLAPCSRSTSESTAALGCLVKDYFPEPVTVSWNSGALTSGVHTFPAVLQSSGLYSLSSVVTVPSSNFGTQTYTCNVDHKPSNTKVDKTVERKCCVECPPCPAPPVAGPSVFLFPPKPKDTLMISRTPEVTCVVVDVSHEDPEVQFNWYVDGVEVHNAKTKPREEQFNSTFRVVSVLTVVHQDWLNGKEYKCKVSNKGLPAPIEKTISKTKGQPREPQVYTLPPSREEMTKNQVSLTCLVKGFYPSDIAVEWESNGQPENNYKTTPPMLDSDGSFFLYSKLTVDKSRWQQGNVFSCSVMHEALHNHYTQKSLSLSPGKGGGGSGGGGSQVQLVQSGAEVKKPGASVKVSCKASGFNIKDFNIHWVRQAPGQGLEWIGRIDPENGDAEYVPKFQGRVTMTRDTSTSTVYMELSSLRSEDTAVYYCTTGSYDLDVEYWGQGTLVTVSSGGGGSGGGGSGGGGSGGGGSDIQMTQSPSSLSASVGDRVTITCHASQNINVWLSWYQQKPGKAPKLLIYKASTLHTGVPSRFSGSGSGTDFTLTISSLQPEDFATYYCQQGQSYPLTFGQGTKLEIK
light: DIQMTQSPSSLSASVGDRVTITCRASQSISSYLNWYQQKPGKAPKLLIYAASSLQSGVPSRFSGSGSGTDFTLTISSLQPEDFATYYCQQGYPYPFTFGQGTKLEIKRTVAAPSVFIFPPSDEQLKSGTASVVCLLNNFYPREAKVQWKVDNALQSGNSQESVTEQDSKDSTYSLSSTLTLSKADYEKHKVYACEVTHQGLSSPVTKSFNRGEC
  Monomeric content: 95.0%

B3: SP019: bispecific conjugate, anti-CD40 Ab HC linked to humanized scFv (SEQ ID NO:60) with LC SEQ ID NO:58 (antibody)
heavy: EVQLLESGGGLVQPGGSLRLSCAASGFTFSSYAMSWVRQAPGKGLEWVSGISGYSGSTYYADSVKGRFTISRDNSKNTLYLQMNSLRAEDTAVYYCARYYSYYGYYYFDYWGQGTLVTVSSASTKGPSVFPLAPCSRSTSESTAALGCLVKDYFPEPVTVSWNSGALTSGVHTFPAVLQSSGLYSLSSVVTVPSSNFGTQTYTCNVDHKPSNTKVDKTVERKCCVECPPCPAPPVAGPSVFLFPPKPKDTLMISRTPEVTCVVVDVSHEDPEVQFNWYVDGVEVHNAKTKPREEQFNSTFRVVSVLTVVHQDWLNGKEYKCKVSNKGLPAPIEKTISKTKGQPREPQVYTLPPSREEMTKNQVSLTCLVKGFYPSDIAVEWESNGQPENNYKTTPPMLDSDGSFFLYSKLTVDKSRWQQGNVFSCSVMHEALHNHYTQKSLSLSPGKGGGGSGGGGSQVQLVQSGAEVKKPGASVKVSCKASGFNIKDFNIHWVRQAPGQGLEWIGRIDPESGDAEYVPKFQGRVTMTRDTSTSTVYMELSSLRSEDTAVYYCTTGSYDLDVEYWGQGTLVTVSSGGGGSGGGGSGGGGSGGGGSDIQMTQSPSSLSASVGDRVTITCHASQNINVWLSWYQQKPGKAPKLLIYKASTLHTGVPSRFSGSGSGTDFTLTISSLQPEDFATYYCQQGQSYPLTFGQGTKLEIK
light: DIQMTQSPSSLSASVGDRVTITCRASQSISSYLNWYQQKPGKAPKLLIYAASSLQSGVPSRFSGSGSGTDFTLTISSLQPEDFATYYCQQGYPYPFTFGQGTKLEIKRTVAAPSVFIFPPSDEQLKSGTASVVCLLNNFYPREAKVQWKVDNALQSGNSQESVTEQDSKDSTYSLSSTLTLSKADYEKHKVYACEVTHQGLSSPVTKSFNRGEC
  Monomeric content: 99.2%

B4: SP027: bispecific conjugate, anti-CD40 Ab HC linked to humanized scFv (SEQ ID NO:60) with LC SEQ ID NO:61 (antibody)
heavy: EVQLLESGGGLVQPGGSLRLSCAASGFTFSSYAMSWVRQAPGKGLEWVSGISGYSGSTYYADSVKGRFTISRDNSKNTLYLQMNSLRAEDTAVYYCARYYSYYGYYYFDYWGQGTLVTVSSASTKGPSVFPLAPCSRSTSESTAALGCLVKDYFPEPVTVSWNSGALTSGVHTFPAVLQSSGLYSLSSVVTVPSSNFGTQTYTCNVDHKPSNTKVDKTVERKCCVECPPCPAPPVAGPSVFLFPPKPKDTLMISRTPEVTCVVVDVSHEDPEVQFNWYVDGVEVHNAKTKPREEQFNSTFRVVSVLTVVHQDWLNGKEYKCKVSNKGLPAPIEKTISKTKGQPREPQVYTLPPSREEMTKNQVSLTCLVKGFYPSDIAVEWESNGQPENNYKTTPPMLDSDGSFFLYSKLTVDKSRWQQGNVFSCSVMHEALHNHYTQKSLSLSPGKGGGGSGGGGSQVQLVQSGAEVKKPGASVKVSCKASGFNIKDFNIHWVRQAPGQGLEWIGRIDPESGDAEYVPKFQGRVTMTRDTSTSTVYMELSSLRSEDTAVYYCTTGSYDLDVEYWGQGTLVTVSSGGGGSGGGGSGGGGSGGGGSDIQMTQSPSSLSASVGDRVTITCHASQNINVWLSWYQQKPGKAPKLLIYKASTLHTGVPSRFSGSGSGTDFTLTISSLQPEDFATYYCQQGQSYPLTFGQGTKLEIK
light: DIQMTQSPSSLSASVGDRVTITCRASQSISSYLNWYQQKPGKAPKLLIYAASFLQSGVPSRFSGSGSGTDFTLTISSLQPEDFATYYCQQGYPYPFTFGQGTKLEIKRTVAAPSVFIFPPSDEQLKSGTASVVCLLNNFYPREAKVQWKVDNALQSGNSQESVTEQDSKDSTYSLSSTLTLSKADYEKHKVYACEVTHQGLSSPVTKSFNRGEC
  Monomeric content: 95.6%
